Reference: PubChem BioAssay AID360 (National Center for Advancing Translational Sciences (NCATS), 2006)
In all, about 48,000 compounds went through this assay and about 550 (1.1%) were called active. Not shown: some 4% with an inconclusive outcome. Cut-off read from the data, not from the text of the source: active = potency below about 15 µM; inconclusive = mostly about 16 µM to 33 µM; inactive = weaker than that. The list shows a part of the results.

molecular target: Lysosomal acid glucosylceramidase (Homo sapiens) (UniProt P04062); assay: Glucocerebrosidase; settings: purified enzyme, resorufin glucoside fluorescence (screen aimed at inhibitors), 20 min; series mostly up to 77 µM;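 note: the screen sought inhibitors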
UniProt P04062, sequence (P04062 whole entry, looked up): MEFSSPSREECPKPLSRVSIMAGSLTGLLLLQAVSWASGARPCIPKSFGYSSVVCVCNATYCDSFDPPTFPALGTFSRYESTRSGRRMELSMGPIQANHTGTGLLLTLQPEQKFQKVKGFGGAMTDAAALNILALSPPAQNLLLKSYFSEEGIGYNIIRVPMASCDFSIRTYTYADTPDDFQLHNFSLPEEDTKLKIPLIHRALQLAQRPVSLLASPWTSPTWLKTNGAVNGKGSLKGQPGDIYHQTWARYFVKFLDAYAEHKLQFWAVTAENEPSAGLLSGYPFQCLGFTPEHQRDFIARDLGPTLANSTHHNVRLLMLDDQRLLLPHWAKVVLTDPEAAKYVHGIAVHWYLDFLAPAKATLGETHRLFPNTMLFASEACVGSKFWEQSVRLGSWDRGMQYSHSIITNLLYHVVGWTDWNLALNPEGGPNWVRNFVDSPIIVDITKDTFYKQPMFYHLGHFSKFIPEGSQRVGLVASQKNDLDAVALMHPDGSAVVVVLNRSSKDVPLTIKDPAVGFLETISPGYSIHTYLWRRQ
Method in brief: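 Compounds titrated against 0.2 nM normal enzyme, 30 uM resorufin beta-D-glucopyranoside substrate, citrate/phosphate buffer with taurocholate and tween-20, pH 5.9. Reaction ran 20 min at room temperature; fluorescence (Ex 548/Em 600) gave AC50.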
Potency is the fitted concentration of half-maximal effect.

Compound | Potency
O=C(C1CCN(S(=O)(=O)c2cccc3cccnc23)CC1)N1CCN(c2ccccn2)CC1 | inactive: > 76.9 µM
CC(C)C(=O)Nc1ccc(C(=O)N2CCN(C(=O)c3ccco3)CC2)cc1 | inactive: > 76.9 µM
COCCN1Cc2cccc(C(=O)Nc3ccc(C)c(C)c3)c2C1=O | inactive: > 76.9 µM
O=C(CSc1nnc(-c2ccc(Cl)s2)o1)N1CCc2ccccc21 | inactive: > 76.9 µM
COc1cccc(-c2cc(C(=O)Nc3cc(C)on3)no2)c1 | inactive: > 76.9 µM
CCOC(=O)CSc1nnc(CNC(=O)c2ccc(OC)cc2)n1Cc1ccccc1 | inactive: > 76.9 µM
Cc1[nH]n(C(N)=S)c(=O)c1C(c1ccccc1)C(C#N)C#N (configuration not stated) | inactive: > 76.9 µM
CC(C)Cn1c(SCc2nnc(-c3cccs3)o2)nc(O)cc1=O | inactive: > 76.9 µM
Cc1nc2oc(C(=O)c3ccccc3)c(N)c2c2c1COC(C)(C)C2 | inactive: > 76.9 µM
COC(=O)c1ccc(COc2cccc(OC)c2)o1 | inactive: > 76.9 µM
Cc1ccccc1OCCn1nc(C(=O)O)c2ccccc2c1=O | inactive: > 76.9 µM
CC(C)CN(CC(C)C)c1nc(N)c(C#N)c(CC#N)c1C#N | inactive
CCCc1[nH]nc2c1C(c1cn[nH]c1-c1ccc(F)cc1)C(C#N)=C(N)O2 (configuration not stated) | inactive: > 76.9 µM
C1=Nc2c(NCc3ccccc3)ncnc2Oc2ccccc21 | inactive: > 76.9 µM
CC1(C(=O)O)Sc2[nH]c(=O)sc2C2c3ccccc3OC(=O)C21 (configuration not stated) | inactive: > 76.9 µM
CC12CCC(C(=O)NCc3ccc4c(c3)OCO4)(OC1=O)C2(C)C (configuration not stated) | inactive: > 76.9 µM
COCCc1nnc(NC(=O)Cc2ccccc2)s1 | inactive: > 76.9 µM
CS(=O)(=O)Nc1ccc(C(=O)N2CCCCC2)cc1 | inactive: > 76.9 µM
Cc1cc(C)cc(OCc2ccc(C(=O)O)o2)c1 | inactive: > 76.9 µM
Cc1ccc(Cn2c(=O)cc(C(=O)O)c3ccccc32)cc1 | inactive: > 76.9 µM
Cn1c(=O)cc(SCC(=O)N2CCN(C(=O)c3ccco3)CC2)c2ccccc21 | inactive: > 76.9 µM
C(=N\n1cnnc1)/c1cccc2ccccc12 | active: 14.3 µM
O=C(CCCc1nc(-c2ccccc2)no1)N1CCOCC1 | inactive: > 76.9 µM
CCOc1ccc(C2NC(=O)c3ccccc3O2)cc1 (configuration not stated) | inactive: > 76.9 µM

Compound | Potency
CCCCCCc1c(O)c2ccccc2[nH]c1=O | inactive: > 76.9 µM
COc1cc(-c2noc(CCCC(=O)NCc3ccco3)n2)cc(OC)c1OC | inactive: > 76.9 µM
Cc1ccc(OCc2nn3c(-c4n[nH]c5c4CCC5)nnc3s2)cc1 | inactive: > 76.9 µM
O=c1cc(-c2ccccc2)[nH]n1-c1nc2ccccc2s1 | inactive: > 76.9 µM
COc1ccccc1OCc1nc(C#N)c(N2CCC(C(N)=O)CC2)o1 | inactive: > 76.9 µM
CC(=O)Oc1cc2c(C(C)=O)coc2c2ccccc12 | inactive: > 76.9 µM
Cc1nc2[nH]onc2c2nccc(=O)c12 | inactive: > 76.9 µM
O=C(c1cc2ccccc2oc1=O)N(Cc1ccco1)CC1CCCO1 (configuration not stated) | inactive: > 76.9 µM
O=C(NCc1cccc(C(F)(F)F)c1)C1CCCN(c2ncccn2)C1 (configuration not stated) | inactive: > 76.9 µM
CN(C)S(=O)(=O)N1CCN(CC(O)COc2ccc(C(=O)c3ccccc3)cc2)CC1 (configuration not stated) | inactive: > 76.9 µM
COc1ccc(-c2nnc(SCc3ccccc3)n2N)cc1 | inactive: > 76.9 µM
CCCn1c2c(c(O)c(C(=O)Nc3ccc(C)cn3)c1=O)CCCC2 | inactive: > 76.9 µM
CCc1nnc(NC(=O)CN2C(=O)c3ccccc3C2=O)s1 | inactive: > 76.9 µM
CCOCCOC(=O)C1=C(C)N(C)C(=O)NC1c1ccccc1F (configuration not stated) | inactive: > 76.9 µM
COc1ccc(-c2cn[nH]c2N)c(OC)c1 | inactive: > 76.9 µM
CCOc1ccc(-c2[nH]ncc2Oc2ccccc2OC)c(O)c1 | inactive: > 76.9 µM
CC(=O)c1c(C)cc(C)c(CSc2nnc(-c3ccco3)o2)c1C | inactive: > 76.9 µM
COc1ccccc1N(CN1C(=O)c2ccccc2C1=O)C(=O)c1cccnc1 | inactive: > 76.9 µM
CCn1nnc(NC(=O)c2cccnc2)n1 | inactive: > 76.9 µM
O=C(Nc1ccccc1C(=O)N1CCCC1)C1CCN(c2ncccn2)CC1 | inactive: > 76.9 µM
CCOC(=O)N1CCN(C(=O)c2ccc(N3CCCC3=O)cc2)CC1 | inactive: > 76.9 µM
Cc1cnc(NC(=O)c2ccc(-c3nc4ccccc4s3)o2)s1 | inactive: > 76.9 µM
O=P(c1ccccc1)(c1ccccc1)C(O)c1ccncc1 (configuration not stated) | inactive: > 76.9 µM
